The labels stand for the following.
T1: RBFOX1 RRM RbFoxmut (Fox-RRM*) (Homo sapiens, UniProt Q9NWB1 109-208, R118D;E147R;N151S;E152T)
T1 sequence: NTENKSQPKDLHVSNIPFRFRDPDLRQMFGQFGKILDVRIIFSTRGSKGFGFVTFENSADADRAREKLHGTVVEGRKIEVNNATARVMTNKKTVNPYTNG

B1: UUGUCGC (DNA:RNA)
RNA: GGGAGACCGGAAUUCAGAUUGUCCUUGUCGCUUAAAUCCCGUCGUAGCCACCA
DNA 1: CAATCTGAATTCCGGTCTCCC
DNA 2: TGGTGGCTACGACGGGATT
B2: AGAAUAG (DNA:RNA)
RNA: GGGAGACCGGAAUUCAGAUUGUCCAGAAUAGUUAAAUCCCGUCGUAGCCACCA
DNA 1: CAATCTGAATTCCGGTCTCCC
DNA 2: TGGTGGCTACGACGGGATT
B3: UCGAAUC (DNA:RNA)
RNA: B1 RNA with U26C, U28A, C29A, G30U
DNA 1: CAATCTGAATTCCGGTCTCCC
DNA 2: TGGTGGCTACGACGGGATT
B4: CACGUCG (DNA:RNA)
RNA: B2 RNA with A25C, G26A, A27C, A28G, A30C
DNA 1: CAATCTGAATTCCGGTCTCCC
DNA 2: TGGTGGCTACGACGGGATT
B5: UGUGGGG (DNA:RNA)
RNA: B2 RNA with A25U, A27U, A28G, U29G, A30G
DNA 1: CAATCTGAATTCCGGTCTCCC
DNA 2: TGGTGGCTACGACGGGATT
B6: AAUCACC (DNA:RNA)
RNA: B2 RNA with G26A, A27U, A28C, U29A, A30C, G31C
DNA 1: CAATCTGAATTCCGGTCTCCC
DNA 2: TGGTGGCTACGACGGGATT
B7: AAUCCGA (DNA:RNA)
RNA: B1 RNA with U25A, U26A, G27U, U28C, C31A
DNA 1: CAATCTGAATTCCGGTCTCCC
DNA 2: TGGTGGCTACGACGGGATT
B8: UCUCAUU (DNA:RNA)
RNA: B1 RNA with U26C, G27U, U28C, C29A, G30U, C31U
DNA 1: CAATCTGAATTCCGGTCTCCC
DNA 2: TGGTGGCTACGACGGGATT
B9: GUUACAC (DNA:RNA)
RNA: B1 RNA with U25G, G27U, U28A, G30A
DNA 1: CAATCTGAATTCCGGTCTCCC
DNA 2: TGGTGGCTACGACGGGATT
B10: UCUCCUG (DNA:RNA)
RNA: B1 RNA with U26C, G27U, U28C, G30U, C31G
DNA 1: CAATCTGAATTCCGGTCTCCC
DNA 2: TGGTGGCTACGACGGGATT
B11: GAUUGCC (DNA:RNA)
RNA: B1 RNA with U25G, U26A, G27U, C29G, G30C
DNA 1: CAATCTGAATTCCGGTCTCCC
DNA 2: TGGTGGCTACGACGGGATT
B12: AUUACCC (DNA:RNA)
RNA: B1 RNA with U25A, G27U, U28A, G30C
DNA 1: CAATCTGAATTCCGGTCTCCC
DNA 2: TGGTGGCTACGACGGGATT
B13: CCUACAU (DNA:RNA)
RNA: B2 RNA with A25C, G26C, A27U, U29C, G31U
DNA 1: CAATCTGAATTCCGGTCTCCC
DNA 2: TGGTGGCTACGACGGGATT
B14: CUUAGCA (DNA:RNA)
RNA: B2 RNA with A25C, G26U, A27U, U29G, A30C, G31A
DNA 1: CAATCTGAATTCCGGTCTCCC
DNA 2: TGGTGGCTACGACGGGATT
B15: UCAUUUG (DNA:RNA)
RNA: B2 RNA with A25U, G26C, A28U, A30U
DNA 1: CAATCTGAATTCCGGTCTCCC
DNA 2: TGGTGGCTACGACGGGATT
B16: GUUCUUA (DNA:RNA)
RNA: B2 RNA with A25G, G26U, A27U, A28C, A30U, G31A
DNA 1: CAATCTGAATTCCGGTCTCCC
DNA 2: TGGTGGCTACGACGGGATT
B17: UCCUCAU (DNA:RNA)
RNA: B1 RNA with U26C, G27C, G30A, C31U
DNA 1: CAATCTGAATTCCGGTCTCCC
DNA 2: TGGTGGCTACGACGGGATT
B18: GUUCUAC (DNA:RNA)
RNA: B2 RNA with A25G, G26U, A27U, A28C, G31C
DNA 1: CAATCTGAATTCCGGTCTCCC
DNA 2: TGGTGGCTACGACGGGATT
B19: AAGCGGG (DNA:RNA)
RNA: B2 RNA with G26A, A27G, A28C, U29G, A30G
DNA 1: CAATCTGAATTCCGGTCTCCC
DNA 2: TGGTGGCTACGACGGGATT
B20: CGUACGC (DNA:RNA)
RNA: B1 RNA with U25C, U26G, G27U, U28A
DNA 1: CAATCTGAATTCCGGTCTCCC
DNA 2: TGGTGGCTACGACGGGATT

Where a chain is given by its changes, count along the chain named. This is one part of the list.

In the test the target is T1, RBFOX1 RRM RbFoxmut (Fox-RRM*). Kind of test: EMSA; HiTS-Eq, 1 nM pool, 10 min; buffer printed only for the single-RNA assays: 10 mM Tris pH 7.5, 150 mM NaCl, 3.4 mM EDTA, 0.001% NP-40, 30 C. The following applies: tags: His6 N-terminal (pET28a); label: 5' 32P. Summed up:
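Purified RbFox RRM (wild type or mutant) was equilibrated for 10 min in 50 µL with 1 nM of a 5′-radiolabelled pool of RNA with 7 randomized nucleotides, its flanks annealed to DNA oligonucleotides, across increasing protein concentrations. Free RNA was separated by 8% native PAGE, excised, reverse-transcribed, PCR-barcoded and sequenced on an Illumina HiSeq 2500. Relative association constants came from read-count changes of each variant against the control reaction, normalised to the cognate motif.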
A general note: Mobility shift assays separate free from complexed probe on a gel.
For the molecule B1, the binding signal was 0.127 KA relative to UGCAUGU.

Turning to B2, the binding signal was 0.144 KA relative to UGCAUGU.

As to B3, the binding signal was 0.36 KA relative to UGCAUGU.

Turning to B4, the binding signal is 0.109 KA relative to UGCAUGU.

Take B5: the binding signal is 0.0927 KA relative to UGCAUGU.

On to B6, for which the binding signal is 0.0566 KA relative to UGCAUGU.

On to B7, for which the binding signal is 0.0381 KA relative to UGCAUGU.

Consider B8, for which the binding signal is 0.101 KA relative to UGCAUGU.

Consider B9, for which the binding signal was 0.0877 KA relative to UGCAUGU.

For B10, the binding signal was 0.0894 KA relative to UGCAUGU.

With B11, the binding signal is 0.179 KA relative to UGCAUGU.

Regarding B12, the binding signal is 0.0885 KA relative to UGCAUGU.

With B13, the binding signal was 0.0881 KA relative to UGCAUGU.

As for B14, the binding signal was 0.158 KA relative to UGCAUGU.

For B15, the binding signal is 0.113 KA relative to UGCAUGU.

For B16, the binding signal is 0.0868 KA relative to UGCAUGU.

B17: the binding signal is 0.11 KA relative to UGCAUGU.

On to B18, for which the binding signal was 0.0959 KA relative to UGCAUGU.

With B19, the binding signal was 0.0834 KA relative to UGCAUGU.

With B20, the binding signal was 0.108 KA relative to UGCAUGU.

For the origin of these results see PMC9911399, “Two distinct binding modes provide the RNA-binding protein RbFox with extraordinary sequence specificity”.
